# Source: the supplement of paper PMC12632987
# The full ranking holds about 4,500 sequences; the median of “median log2 fold change of GCK-ALFA target abundance (FLAG IP / Myc IP barcode read proportion)” is about 0.078, and the lowest 2% start at about -0.6. This is one part of the list.
# B1: GBRAP_177_5016 (protein)
# chain: LTLEELRAMIEDPNTSAKEAFEALEEAAADITAEEAIELLAEILRKKEMDEEAYKAAARAILTLSEVKGVTLAEVIGYLIEHVEAEKVEAVLEAIAEVRD
# B2: GBRAP_11_2900 (protein)
# chain: KKEKLEKLAKLLEEAIKLLEKILKEGPENKELLEKLLKVAEEALKLAKEVLDESSVELMKELIELIKKAKEDPENAEEYLKKALAVARVLLGQVLLEIEE
# B3: GBRAP_160_4153 (protein)
# chain: SEEIEKLIKEINEIADEAIKMMEGETPEQAKTIARVALGEMLLLVEENEAVSEETEDKIGEVVDATEATLKANPNLTVEEVKALLNEARDKIVKILKEES
# B4: GBRAP_166_4956 (protein)
# chain: SLEEVIEKTKKELKELAEKMKDANPEEQLELYIEMAETLQEAKDAGISREELLELAELALKLVKEAGGDVDHLLGVIEMFVDIDEEELDKLEKIAEEVKK
# B5: GBRAP_128_3240 (protein)
# chain: WDPAVLAEAEALIETIVTGSVEEAREATAALVDLMSTVDLETAEKIAELLIEALKKLSAEKLDAVADTLEENRDKLDPEKATLANDVQIEALNLAEEKEE
# B6: GBRAP_48_5817 (protein)
# chain: MEFDEEKLKKLVEETVEEMYELYKEAKEAGLSEEEILKLVRAELGDLALELEEAGFEKAADYLLERENREEVARRLVEFFDRGELEEAKKYLFEKLKEAE
# B7: GBRAP_52_6279 (protein)
# chain: SEEEVEKVAKEIVELIKEGKLEEAIELARKAAREFSLEEVLRLGELLIKQIAELSPEQLDLALEVMEALAEELERIFGAEEEADILEARAAAAAYQNLQK
# B8: GBRAP_160_4183 (protein)
# chain: SEEIEELKEFIDERFEEAIELIKNETIEERITIVSVEFGQIILEASESESVSDELVDKIAEIEDELVNTMKENPNLTYEETKKLIEEAREKIKKALEEDE
# B9: GBRAP_52_5949 (protein)
# chain: MLEEALKLLKEALEAVLAGKREEARKILRELVEKFDLETIKKAAVELAKSLAGASDEELEAAVELFDMLEEELIEAGVPEEEAELIRGDALAALAKAHAA
# B10: GBRAP_11_2636 (protein)
# chain: KKEKLEEAARKAKEAIEVVERLIEEGVDNEELREELRRLLEELAKLVEEHGDEALKRLVEIAKELFEEAEEDPENREFYLKLLKNTLEILRAELEEEIEE
# B11: GBRAP_160_4357 (protein)
# chain: SERAEKLIKEIREATERVISELGRLSREEVAAIAAGEFGAIAMDAVEDESMPDEVVDIIVEAEDEILRALEELRDASREEVARRIREITERAIKEIKEAA
# B12: GBRAP_35_5597 (protein)
# chain: DTDQLAVDSLIDMIEATIEGIPELPVDTLVSITNLLIKDAEELRKQLKNNVEALERIAKALEKLKEALKKHHGDNPKVQETIEKVEKAIKELKEQAKKAL
# B13: GBRAP_11_2884 (protein)
# chain: DKEKLKKLAKLAEELAKTLEQLLKEGVDNEKLREEAEKLLEELEKLVKEHADEAEKKLAEILKENWEKAKKDPENAEEYVKEALAVAKVLEGQFLLKLEE
# B14: GBRAP_52_5849 (protein)
# chain: SRERARRLAEELVELRLEGREEELEARIRELVETLSEEEVLEILRELAELAKEADPERLEAILEVAELLADAAEEAGFDEDELSYALAEVAAAAYKQLQK
# B15: GBRAP_128_3389 (protein)
# chain: SQEEKVKEAFELIDEIVEADVETARELARELMKLVGTLSLEDQEKVFEYFESKLPELTAEKLEVVADVLREERPKFDPESQLLVAGLEVEALNAAEEKEE
# B16: GBRAP_95_7017 (protein)
# chain: EDDQLAADSLAEVLEGYVELGEEEKAREAAKELVKVVAENPSVKFPSDLSPEAAKIIAEAARETLSKEEAAAVLEKLAADAADPEVKAIAEAALAEVKAE
# B17: GBRAP_53_6413 (protein)
# chain: AEAEIAALRAEVKATARAAAAADEATLAALVAEIGALLAALKAAGMPDEELTALAEEVARTLRAAGAPDSALVALAGHLAALGLEEATAAVAEEAVEELE
# B18: GBRAP_74_6524 (protein)
# chain: MAELLAALRAAAAAGDVAAAVALAREIIATGDLETIEEAAEILVAFVEAHLDALTPEELAALSDTLAELADELMERGGDSEVINAVAAAAVRLEERLAAL
# B19: GBRAP_14_3836 (protein)
# chain: MEEIRKVLEEAAREIARELAELAGLDEEEVRARLLEIVDEALALYEETGDIGEAMDYFERRALALVEELLADKSPELQARAKAIVRVRIGEAILEIEELE
# B20: GBRAP_184_5274 (protein)
# chain: MVRHVEIVAETGEEAIEQVRAAAEEARARGEKLRLTILLRNASVEEIIELFDLLKELREEGVIESAVVGIERELSEEEIDTILKAADEAGVKLVVAISDE
# B21: GBRAP_160_4833 (protein)
# chain: MEKVEKAKKYIREEFKEIIEMMKGQSAEERAAIVRVGMGEIIMYLEEEGVLTDELGDFIVEETDKIVDTILANPDLTDEELTALLEDAEKRIIAALEKEA
# B22: GBRAP_11_2903 (protein)
# chain: KKEKLEKLAKLLEEAAKLLEKLLKEGTDDEELLKEALKVAEEALKLGKEVLDESSVELLKEAVKLLKEAKENPEKAEQYVKEALAILRVLEGQVLLEIEE
# B23: GBRAP_39_5667 (protein)
# chain: EEEEENEDVVSYLEAVAAKYLYETGISLEEAFEEAKKVLKEYAEKHPELKELIEELIKLAEEKGEEAKLALIGIAVLIKEGTPLEEIKEKIEKVIAYFKS
# B24: GBRAP_139_3685 (protein)
# chain: SHLEKIIEKAKELTKKAVEEGEPYVKKLVEFLSTLSEEEFEAAAKAVAEELQKYDLDTAEKLADLILEKAEEILKDEDKRIIVEAELNRALALRAVREEE
# B25: GBRAP_80_6859 (protein)
# chain: AEARLAAAAARLKELLPEQAELIDRVVKIAKELGVPLEDIADLLEALAELAKVDKELAAELLKELLKDLEEEKKAGNSENALATVRGYAGEALMLAEELE
# B26: GBRAP_195_5411 (protein)
# chain: KKVESEVLRITKEDTEEEILEKIEEIIEKVKKKSNGVLVLVVARHPEIPEETVEKAVKEAQKKFPEIEVILEVFDDISLPLETLEKIAEMLRLNEEEELE
# B27: GBRAP_48_5835 (protein)
# chain: EEERLERAVEESLRVIRETAELLEEARAEGLSEAAIEAILIDAADELEEILERYLGLGEAFRALPLEERLAMVRELVETLREEGEEAARALIRERIAELA
# B28: GBRAP_184_5344 (protein)
# chain: KTLEVHIENKSLEEIVKEAEKYAKEAAAQGADLIISIDAEGLSDEELVKLVEEIGKIAKKEGVKNLTIGIDKEVDEETADKLLKVADKYGIKLTLALKDE
# B29: GBRAP_90_7013 (protein)
# chain: SATEEKIKELEHEKEVVLEEMDLGVVSARDDEELEEAMKILDEYNAEAATAVLSVKELKPIIGEEKAEKYIKEIREAGNDKEKIKELLEKAYEEAIKIAK
# Biological target: GABARAP, O95166
# Sequence (O95166 whole entry, the tested form may be a part): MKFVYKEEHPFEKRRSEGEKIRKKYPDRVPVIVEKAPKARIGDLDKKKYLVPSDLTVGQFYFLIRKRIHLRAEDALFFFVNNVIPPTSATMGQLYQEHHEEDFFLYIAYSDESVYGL
# Assay: median log2 fold change of GCK-ALFA target abundance (FLAG IP / Myc IP barcode read proportion) (log2 ratio); each designed protein is fused to an ALFA-tag nanobody in HEK293 cells to bring the named protein to FLAG-tagged glucokinase (GCK); Myc marks an untargeted standard; higher = target protein stabilised (more abundant)
# Conditions: target protein: 3xFLAG-MCP-GCK-ALFA reporter; HEK293 landing pad (RPLP)
# Method in brief: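 HEK293 landing-pad cells received a recombined binder library fused to the ALFA nanobody and were induced with 2 μg mL^−1 doxycycline, then transfected with a plasmid encoding a FLAG-tagged target and a Myc-tagged standard. Lysates were collected after 48 h for anti-FLAG and anti-Myc immunoprecipitation, and the circular RNA barcodes were reverse transcribed, amplified and sequenced. Target abundance for each binder is the median log2 ratio of FLAG to Myc barcode read proportions. Barcodes had to reach a proportion of at least 10^−7 in both replicates, each binder needed at least 3 barcodes per replicate, a pseudocount of 10^−6 was applied, and the two replicates were pooled.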
row,Binder,median log2 fold change
1,B1,0.0755
2,B2,-0.127
3,B3,-0.642
4,B4,0.15
5,B5,0.256
6,B6,0.16
7,B7,-0.047
8,B8,-0.0258
9,B9,0.0973
10,B10,-0.275
11,B11,-0.167
12,B12,0.00193
13,B13,0.31
14,B14,-0.288
15,B15,0.0876
16,B16,0.373
17,B17,0.295
18,B18,0.174
19,B19,-0.154
20,B20,-0.111
21,B21,0.0874
22,B22,0.268
23,B23,0.11
24,B24,-0.0605
25,B25,0.0818
26,B26,0.0189
27,B27,0.091
28,B28,0.42
29,B29,0.233
